Reference: PubChem BioAssay AID1347165 (National Center for Advancing Translational Sciences (NCATS), 2019)
Among all 220,000 compounds or so, about 5,700 (2.6%) were called active. Inconclusive results, whose numbers are uncertain, are shown with a selection of clear calls. Calls come from the whole dose curve; as a rule, active = well fitted inhibition curve with a large enough effect; inconclusive = small, poorly fitted or top-dose-only effect; inactive = no such curve, though single readings can be large or run the other way. Potencies beside an inconclusive call are fits to weak or partial responses and may not hold up.

What follows are molecules tested against Lysine-specific demethylase 5B (Homo sapiens) (UniProt Q9UGL1) (assay: Primary screen for KDM5B Histone Demethylases FDH-coupled qHTS). Settings: FDH-coupled NADH fluorescence (FDH is formaldehyde dehydrogenase); activity change, negative = inhibition: at 57.7 µM (top of the series) unless noted.
Procedure, shortened: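 KDM5BΔAP (200 nM final) in 50 mM HEPES pH 7.5, 0.01% Tween-20 was preincubated 10 min at RT with compound over a concentration range. Substrate mix (H3K4me3 12.5 µM, α-KG 25 µM, Fe²⁺, ascorbate, NAD⁺, FDH) was added, and NADH fluorescence change over 30 min gave dose-response curves.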
Note: nearly all actives have a fitted effect of over 70% in size.
Potency is the fitted concentration of half-maximal effect; tags give direction and shape of the fitted curve.
Throughout, for activity change, negative = inhibition: 0% is about no effect.

Chain of UniProt Q9UGL1 (Q9UGL1 whole entry, looked up): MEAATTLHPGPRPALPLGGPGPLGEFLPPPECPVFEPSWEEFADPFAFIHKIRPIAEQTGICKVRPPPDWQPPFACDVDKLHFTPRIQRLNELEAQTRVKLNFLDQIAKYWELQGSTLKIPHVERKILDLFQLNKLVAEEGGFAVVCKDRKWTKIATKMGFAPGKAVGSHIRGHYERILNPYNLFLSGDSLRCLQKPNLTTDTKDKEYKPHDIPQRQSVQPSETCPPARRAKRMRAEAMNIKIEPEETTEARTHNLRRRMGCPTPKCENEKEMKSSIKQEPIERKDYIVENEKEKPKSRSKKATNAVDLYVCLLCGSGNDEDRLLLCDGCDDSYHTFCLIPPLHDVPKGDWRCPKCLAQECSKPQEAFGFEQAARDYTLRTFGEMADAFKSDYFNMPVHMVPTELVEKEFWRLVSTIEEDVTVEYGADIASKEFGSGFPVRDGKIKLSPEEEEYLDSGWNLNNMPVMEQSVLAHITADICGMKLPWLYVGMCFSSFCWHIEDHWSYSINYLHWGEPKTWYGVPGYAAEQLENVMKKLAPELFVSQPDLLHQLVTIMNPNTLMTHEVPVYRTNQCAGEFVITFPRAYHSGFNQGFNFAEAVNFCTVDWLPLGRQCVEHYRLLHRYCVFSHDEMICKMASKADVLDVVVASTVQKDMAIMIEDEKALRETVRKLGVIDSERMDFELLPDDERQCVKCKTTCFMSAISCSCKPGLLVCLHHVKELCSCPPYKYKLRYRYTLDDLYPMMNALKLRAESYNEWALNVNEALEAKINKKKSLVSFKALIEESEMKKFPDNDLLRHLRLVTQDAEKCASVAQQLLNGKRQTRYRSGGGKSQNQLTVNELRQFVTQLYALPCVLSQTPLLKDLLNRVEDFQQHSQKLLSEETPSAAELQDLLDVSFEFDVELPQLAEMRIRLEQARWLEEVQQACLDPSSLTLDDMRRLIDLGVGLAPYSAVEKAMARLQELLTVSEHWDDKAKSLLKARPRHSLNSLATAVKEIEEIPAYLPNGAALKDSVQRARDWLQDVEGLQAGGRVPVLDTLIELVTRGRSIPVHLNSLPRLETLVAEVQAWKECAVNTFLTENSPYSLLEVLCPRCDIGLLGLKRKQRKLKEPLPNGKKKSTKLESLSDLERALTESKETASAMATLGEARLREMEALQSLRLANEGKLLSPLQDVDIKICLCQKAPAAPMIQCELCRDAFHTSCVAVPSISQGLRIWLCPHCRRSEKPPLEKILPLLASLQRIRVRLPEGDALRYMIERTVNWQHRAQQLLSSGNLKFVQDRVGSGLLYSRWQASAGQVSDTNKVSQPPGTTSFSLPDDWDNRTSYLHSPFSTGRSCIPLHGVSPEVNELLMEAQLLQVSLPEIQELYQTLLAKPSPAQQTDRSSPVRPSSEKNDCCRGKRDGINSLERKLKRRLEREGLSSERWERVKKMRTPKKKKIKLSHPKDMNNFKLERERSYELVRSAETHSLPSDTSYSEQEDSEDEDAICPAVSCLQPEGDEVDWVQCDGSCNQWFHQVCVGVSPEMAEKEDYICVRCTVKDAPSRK

| Structure (SMILES) | activity change, negative = inhibition | Potency |
| --- | --- | --- |
| COc1cc(C2C(C(=O)Nc3ccccc3)=C(C)Nc3nnnn32)cc(OC)c1OC (configuration not stated) | inconclusive: -31% [inhibitor] | – |
| Cc1noc2c(N(C)C)cc(-c3cccs3)nc12 | inactive: -31.1% [at 115 µM] | – |
| COc1ccc(-c2noc(CN(C(=O)c3cc(OC)c(OC)cc3OC)C(C)C)n2)cc1 | inconclusive: -47.8% [inhibitor] | – |
| COc1cccc(-n2cc(C(=O)NCc3ccc(C)cc3)c3ccccc3c2=O)c1 | – | inconclusive: 39.8 µM [inhibitor, single point] |
| O=C1C=CC(=O)N1c1cccc(-c2ccccc2)c1 | – | inconclusive: 1.78 µM [inhibitor, full curve, poor fit] |
| O=C(Cc1ccccc1Br)N1CCCN(c2cc(-c3ccc(F)cc3)[nH]n2)CC1 | – | inconclusive: 15.8 µM [inhibitor, partial curve] |
| C=CCOC(=O)C1=C(C)N=C2SC=C(CC(=O)NCc3ccc(F)cc3)N2C1c1ccccc1C (configuration not stated) | – | inconclusive: 10 µM [inhibitor, partial curve] |
| O=Cc1ccccc1-c1cnc2ccccc2c1 | inactive: 26% [at 149 µM] | – |
| O=C1c2ccccc2C(Nc2cc(Cl)cc(Cl)c2)N1c1cccnc1 (configuration not stated) | inactive: 3.05% | – |
| CCc1ccc(C2c3c(-c4ccccc4)n[nH]c3C(=O)N2c2ccc(C(=O)O)cc2)cc1 (configuration not stated) | inactive: 9.18% | – |
| NCCc1noc(-c2cccnc2)n1 | – | inconclusive: 39.8 µM [inhibitor, single point] |
| CCOc1ccc(CC(=O)NC2CCN(c3cc(-c4cccs4)[nH]n3)C2)cc1OCC (configuration not stated) | – | inconclusive: 10 µM [inhibitor, partial curve, poor fit] |
| COc1ccc(C(C(=O)O)N2CCN(Cc3csc(C)n3)CC2)c(C)c1 (configuration not stated) | – | inconclusive: 4.47 µM [inhibitor, partial curve, poor fit] |
| CC(C)C[C@@H](NC(=O)C1=C[C@@H](NC(=O)NC2CCCCC2)[C@@H](O)[C@H](O)C1)C(N)=O | – | inconclusive: 31.6 µM [inhibitor, single point] |
| CC1(CCCCN2CCOCC2)COc2ccc(C(=O)Nc3ccc(Cl)cc3)cc2N1 (configuration not stated) | – | active: 25.1 µM |
| CCCOc1ccc(CNC(=O)CS(=O)(=O)Cc2nc(-c3ccccc3C)oc2C)cc1 | inactive: 65.3% | – |
| CCN(CC)C(=O)c1cn(CCC#N)nc1-c1cccc(Cl)c1 | inactive: 7.36% | – |
| COc1ccc(OC2CCN(C(C)=O)CC2)c(C(=O)NC(C)c2cn(C)nc2C)c1 (configuration not stated) | – | active: 31.6 µM |
| O=C(CCC1CCCN(S(=O)(=O)c2ccccc2)C1)NCc1ccc(Cl)cc1 (configuration not stated) | inactive: -12.1% | – |
| CC(=O)N1CCN(CC(=O)Nc2sc3c(c2C(N)=O)CCCC3)CC1 | inactive: -3.21% | – |
| O=C(O)CNC(=O)c1cc(-c2ccccn2)nc2ccccc12 | inactive: -7.75% | – |
| Cc1ccc(CCN2CCCCC23Cc2ccccc2CN(C(=O)CCC(=O)O)C3)cc1 (configuration not stated) | – | inconclusive: 50.1 µM [inhibitor, partial curve, poor fit] |
| CCn1c(=O)c(-c2noc(C(=O)N3CCCCC3)n2)nn(-c2ccc(C)cc2)c1=O | inactive: 14.9% | – |

| Structure (SMILES) | activity change, negative = inhibition | Potency |
| --- | --- | --- |
| COC(=O)c1ccc2c(=O)n(CCCCCC(=O)NCc3ccc(OC)cc3)c(=O)[nH]c2c1 | inconclusive: -36% [inhibitor] | – |
| COc1ccc(Nc2cc(C(=O)NCCCN(C)C3CCCCC3)c3ccccc3n2)c(OC)c1 | – | inconclusive: 6.31 µM [inhibitor, partial curve, poor fit] |
| CCc1ccccc1N/C=C(\C#N)c1nc(-c2ccc(C)cc2)cs1 | inactive: 15.6% | – |
| O=C(CSc1ccncc1)N1CCCC(O)(CN2CCCC2)C1 (configuration not stated) | – | inconclusive: 3.98 µM [inhibitor, full curve, poor fit] |
| CCCc1cc(=O)oc2c(C)c(OCC(=O)NCCN3CCOCC3)ccc12 | – | inconclusive: 8.91 µM [inhibitor, full curve, poor fit] |
| CCCn1c2ccccc2c2cnn(CC(=O)NCCCN(Cc3ccccc3)C(C)C)c(=O)c21 | – | inconclusive: 25.1 µM [inhibitor, partial curve, poor fit] |
| O=C(c1ccc2[nH]ccc2c1)N1CCC2(CC1)N=C(c1cccc(Br)c1)NO2 | – | inconclusive: 22.4 µM [inhibitor, single point] |
| COCCN(CC1CC1)C(=O)c1ccc2nc(-c3ccc(F)cc3)cn2c1 | – | active: 25.1 µM |
| COCCNC(=O)c1cc(-c2ccc(OC)cc2)nc2c1c(C1CCNC1)nn2C (configuration not stated) | – | inconclusive: 56.2 µM [inhibitor, partial curve, poor fit] |
| O=C(NCC1(COc2cnccn2)C[C@@H](O)[C@@H](O)C1)N1CCOCC1 (some centres not stated) | – | inconclusive: 25.1 µM [inhibitor, partial curve, poor fit] |
| O=c1[nH]c2ccccc2c2oc(CCl)nc12 | – | inconclusive: 31.6 µM [inhibitor, single point] |
| O=C(NCc1cc(F)ccc1F)c1cccnc1N1CC2CC(C1)[C@H]1CCCC(=O)N1C2 (some centres not stated) | – | active: 31.6 µM |
| O=C(NCc1ccccc1Cl)[C@@H]1CNC[C@H]1COc1cccnc1 | – | inconclusive: 14.1 µM [inhibitor, partial curve] |
| Cc1nc(N2CCC(NC(=O)c3cc4ccccc4[nH]3)CC2)cc(C(F)(F)F)n1 | – | inconclusive: 25.1 µM [inhibitor, single point] |
| CC(C)c1cc(C(=O)N2CCC(C(=O)N3CCCCCC3)CC2)c2ccccc2n1 | inactive: 17.1% | – |
| COc1cccc(NC(=O)C(C)Sc2nncn2-c2ccccc2)c1 (configuration not stated) | inactive: -14.6% | – |
| CC(C)(C)c1ccc(-c2csc(NC=C(C#N)C#N)n2)cc1 | inactive: 1.1% | – |
| O=C1c2cc(N3CCOCC3)nc(-c3cccc(CO)c3)c2CN1Cc1ccccc1 | – | active: 35.5 µM |
| CCN1CCC(OCCCNC(=O)CCC[C@H]2NC[C@@H]3C[C@H]2CN(Cc2ccccc2)C3)CC1 | – | inconclusive: 14.1 µM [inhibitor, partial curve] |
| COc1ccc(C2CC(=O)N(CC(=O)Nc3ccc(C(C)=O)cc3)c3ccccc3S2)cc1OC (configuration not stated) | – | inconclusive: 17.8 µM [inhibitor, partial curve, poor fit] |
| O=C(c1cc(=O)c2ccccc2o1)N(Cc1ccc(F)cc1)C1CCS(=O)(=O)C1 (configuration not stated) | inactive: 16.4% | – |
| COc1cccc(CNC(=O)CC2C(=O)NCCN2CC(C)C)c1OC (configuration not stated) | – | inconclusive: 28.2 µM [inhibitor, partial curve, poor fit] |
| CCCC1=C(C(=O)OCC)C(c2ccc(C)cc2)C(C#N)=C(N)O1 (configuration not stated) | – | inconclusive: 25.1 µM [inhibitor, single point] |

| Structure (SMILES) | activity change, negative = inhibition | Potency |
| --- | --- | --- |
| Cc1nc(NC(=O)Cn2nc3c(cc2=O)CCCC3)sc1C | inactive: 2.26% | – |
| COc1ccc2cnn(CC(=O)Nc3ccc(F)cc3F)c(=O)c2c1OC | – | inconclusive: 35.5 µM [inhibitor, single point] |
| Cc1ccc2occ(CC(=O)Nc3sc4c(c3C(=O)NCc3ccco3)CCCC4)c2c1 | inactive: -17.2% | – |
| Cc1c(C(=O)NCc2ccc(OC(C)C)cc2)sc2ncnc(N(C)C3CCCCC3)c12 | – | inconclusive: 25.1 µM [inhibitor, partial curve, poor fit] |
| COc1ccccc1CCNC(=O)CCCn1c(=O)c2cccn2c2cccnc21 | – | inconclusive: 22.4 µM [inhibitor, single point] |
| COc1ccc(-c2[nH]ncc2CN2CCCCCNC(=O)[C@@H]3CCC[C@@H]32)cc1 | – | inconclusive: 39.8 µM [inhibitor, single point] |
| C/C=C(\C)C(=O)OC1Cc2cc3ccc(=O)oc3cc2OC1(C)C (configuration not stated) | – | inconclusive: 28.2 µM [inhibitor, partial curve, poor fit] |
| Cc1cc(=O)n2[nH]c(NC(=O)c3cccc(Cl)c3)nc2n1 | – | inconclusive: 15.8 µM [inhibitor, partial curve, poor fit] |
| O=C(NCCc1ccccc1)N1CCC(c2noc(-c3cccnc3)n2)C1 (configuration not stated) | inactive: -13.5% | – |
| CC(=O)N1CCC(N2CC[C@@H](CO)N(C)c3nc(C)ccc3C2)CC1 | – | active: 31.6 µM |
| O=C(Cn1c(-c2cccs2)cc2cc(F)ccc21)N1CCCCC1 | – | inconclusive: 35.5 µM [inhibitor, partial curve, poor fit] |
| Cc1cccc(N2CCN(c3ncnc4c3cnn4-c3ccc(Cl)cc3)CC2C)c1 (configuration not stated) | – | inconclusive: 31.6 µM [inhibitor, single point] |
| COc1cccc(C(=O)Nc2c3c(nn2-c2ccc(C)cc2C)CS(=O)(=O)C3)c1OC | – | inconclusive: 25.1 µM [inhibitor, single point] |
| COc1ccc(OCc2ccc(-c3nc(C#N)c(NCCc4ccccc4)o3)o2)cc1 | – | inconclusive: 25.1 µM [inhibitor, partial curve, poor fit] |
| COc1ccc(-c2nc(-c3ccccc3)nc3c2CN(C(=O)c2ccccc2C)CC3)cc1 | inactive: -8.78% | – |
| COc1ccc(-c2cc(=O)n(-c3ccc(OC)cc3)[nH]2)cc1 | – | inconclusive: 8.91 µM [inhibitor, full curve, poor fit] |
| CC(C)CN(CC(C)C)S(=O)(=O)c1ccc(C(=O)Nc2sc3c(c2C(N)=O)CCN(C(C)C)C3)cc1 | – | inconclusive: 35.5 µM [inhibitor, single point] |
| CN(CC1(C)CCOCC1)C(=O)c1ccc2c(c1)OCO2 | inactive: 4.54% | – |
| CCN1CCOC(=O)C1CC(=O)Nc1cc(Cl)ccc1C (configuration not stated) | – | inconclusive: 1.41 µM [inhibitor, partial curve, poor fit] |
| CCOC(=O)c1ccc(NC(=O)N2Cc3[nH]cnc3C[C@H]2c2nc(-c3ccc4c(c3)OCO4)no2)cc1 | – | inconclusive: 31.6 µM [inhibitor, single point] |
| COc1ccccc1CCNC(=O)C1CCN(c2nc(Cl)nc3nc[nH]c23)CC1 | inactive: -12% | – |
